According to paper PMC11546610, “Molecular Modeling and In Vitro Functional Analysis of the RGS12 PDZ Domain Variant Associated with High-Penetrance Familial Bipolar Disorder” (International Journal of Molecular Sciences, 2024):
Results are given in words; binding and its absence hold for the method and conditions named. For part of these data: In cells and extracts the contact can be indirect. Some binding calls cover weakened binding; strength is not graded here. Tags and fused reporters may be left off the sequences shown. *: point of attachment. Biotin = O=C1N[C@H]2[C@H](CS[C@H]2CCCCC(=O)*)N1; Ahx = NCCCCCC(=O)O

What was measured:
[1] = target: T1, Flag-epitope tagged SAPAP3 full-length protein (UniProt O95886); assay: co-IP; HEK293T cells co-transfected with pcDNA3.1-Flag-SAPAP3 and pcDNA3.1-HA-RGS12; Triton-X lysis buffer (20 mM Tris-HCl pH 7.5, 150 mM NaCl, 1 mM EDTA, 1 mM EGTA, 1% Triton X-100); anti-HA or anti-Flag antibody overnight at 4 °C, protein-A/G beads; immunoblot for HA or Flag
T1 sequence: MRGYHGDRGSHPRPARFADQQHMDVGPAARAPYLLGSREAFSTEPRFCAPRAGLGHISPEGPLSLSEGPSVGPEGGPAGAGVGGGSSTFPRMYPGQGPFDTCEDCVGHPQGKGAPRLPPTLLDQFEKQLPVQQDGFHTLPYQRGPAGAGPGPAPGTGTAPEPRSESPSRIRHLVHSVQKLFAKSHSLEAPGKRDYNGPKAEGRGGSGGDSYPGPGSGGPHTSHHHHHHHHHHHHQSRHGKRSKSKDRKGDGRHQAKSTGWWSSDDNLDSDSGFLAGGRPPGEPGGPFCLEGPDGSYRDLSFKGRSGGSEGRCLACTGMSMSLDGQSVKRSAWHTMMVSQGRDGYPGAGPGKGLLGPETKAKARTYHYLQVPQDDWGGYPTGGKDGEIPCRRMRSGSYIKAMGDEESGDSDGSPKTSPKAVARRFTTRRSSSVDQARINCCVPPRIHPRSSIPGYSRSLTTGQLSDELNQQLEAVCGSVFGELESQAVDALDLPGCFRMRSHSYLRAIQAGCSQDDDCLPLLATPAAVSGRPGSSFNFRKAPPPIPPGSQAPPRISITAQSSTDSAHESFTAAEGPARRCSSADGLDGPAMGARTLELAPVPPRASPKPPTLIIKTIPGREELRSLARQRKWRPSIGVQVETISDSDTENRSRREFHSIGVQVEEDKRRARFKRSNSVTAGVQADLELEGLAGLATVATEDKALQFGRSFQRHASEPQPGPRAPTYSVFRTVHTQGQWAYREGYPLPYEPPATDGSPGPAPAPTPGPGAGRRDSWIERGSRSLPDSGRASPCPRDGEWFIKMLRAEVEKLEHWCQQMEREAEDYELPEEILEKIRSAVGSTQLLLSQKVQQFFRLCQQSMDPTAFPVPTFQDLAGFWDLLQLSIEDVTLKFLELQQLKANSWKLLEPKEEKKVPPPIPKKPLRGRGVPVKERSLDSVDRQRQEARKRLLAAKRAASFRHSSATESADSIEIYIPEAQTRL

[2] = target: T2, HA-epitope tagged RGS12 full-length protein (UniProt O14924); assay: as above
T2 sequence: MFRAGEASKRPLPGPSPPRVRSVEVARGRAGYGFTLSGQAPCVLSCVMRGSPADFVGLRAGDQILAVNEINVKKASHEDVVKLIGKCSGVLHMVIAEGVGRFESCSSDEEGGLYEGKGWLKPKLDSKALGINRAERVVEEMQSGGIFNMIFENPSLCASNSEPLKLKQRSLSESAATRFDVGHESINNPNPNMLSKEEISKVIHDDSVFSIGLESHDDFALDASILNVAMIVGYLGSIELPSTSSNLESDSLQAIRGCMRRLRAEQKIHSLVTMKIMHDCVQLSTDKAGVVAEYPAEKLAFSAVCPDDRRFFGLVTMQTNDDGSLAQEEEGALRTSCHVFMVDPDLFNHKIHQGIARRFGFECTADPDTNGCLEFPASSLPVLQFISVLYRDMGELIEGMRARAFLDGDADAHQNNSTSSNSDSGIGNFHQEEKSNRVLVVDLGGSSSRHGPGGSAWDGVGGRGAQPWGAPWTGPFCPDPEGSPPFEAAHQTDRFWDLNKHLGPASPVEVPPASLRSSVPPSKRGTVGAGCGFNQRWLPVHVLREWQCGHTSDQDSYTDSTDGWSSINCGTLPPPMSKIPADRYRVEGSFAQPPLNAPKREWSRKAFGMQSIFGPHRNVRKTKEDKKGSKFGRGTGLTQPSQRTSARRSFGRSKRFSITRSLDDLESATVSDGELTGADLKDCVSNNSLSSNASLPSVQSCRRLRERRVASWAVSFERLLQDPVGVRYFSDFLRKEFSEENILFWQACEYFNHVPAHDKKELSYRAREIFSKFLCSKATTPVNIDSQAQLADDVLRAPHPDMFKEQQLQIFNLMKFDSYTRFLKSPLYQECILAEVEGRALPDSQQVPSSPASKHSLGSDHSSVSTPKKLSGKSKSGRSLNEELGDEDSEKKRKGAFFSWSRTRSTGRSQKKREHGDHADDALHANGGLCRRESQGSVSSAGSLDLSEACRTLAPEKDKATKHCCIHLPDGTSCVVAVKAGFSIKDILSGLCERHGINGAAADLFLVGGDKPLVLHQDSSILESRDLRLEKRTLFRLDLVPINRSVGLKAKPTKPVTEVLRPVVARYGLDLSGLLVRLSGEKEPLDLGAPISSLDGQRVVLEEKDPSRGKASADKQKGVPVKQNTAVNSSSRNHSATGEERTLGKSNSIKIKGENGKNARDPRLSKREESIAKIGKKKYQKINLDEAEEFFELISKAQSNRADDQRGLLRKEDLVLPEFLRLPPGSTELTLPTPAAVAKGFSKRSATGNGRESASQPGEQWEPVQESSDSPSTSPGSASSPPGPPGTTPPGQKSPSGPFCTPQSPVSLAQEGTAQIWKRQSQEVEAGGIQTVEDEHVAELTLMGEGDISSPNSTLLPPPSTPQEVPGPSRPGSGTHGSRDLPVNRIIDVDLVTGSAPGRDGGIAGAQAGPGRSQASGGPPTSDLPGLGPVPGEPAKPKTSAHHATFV

[3] = target: T3, rat beta2-adrenergic receptor C-terminal peptide, biotin-Ahx-…-carboxylic acid (rat); assay: SPR; Alto 8 × 2 digital microfluidics SPR (Nicoya); biotinylated peptides immobilised on streptavidin-coated gold nanosensors; GST-RGS12 PDZ fusion protein as analyte, single-cycle kinetics, 111 nM-9 μM; PBS pH 7.3 with 0.1% Tween 20, BSA, 3% glycerol; mNotch1 or rβ2AR reference sensor subtracted; 1:1 Langmuir model with mass transport limitation; apparent rates, estimated KD; both purified
T3 sequence (peptide, biotin-Ahx on the N-terminus; C-terminal carboxylic acid): QGRNCNTNDSPL

[4] = target: T4, mNotch1 C-terminal peptide, biotin-Ahx-…-carboxylic acid (mouse); assay: as above
T4 sequence (peptide, biotin-Ahx on the N-terminus; C-terminal carboxylic acid): PSQITHIPEAFK

B1: HA-epitope tagged RGS12 full-length protein (protein, UniProt O14924 1-1447)
chain: MFRAGEASKRPLPGPSPPRVRSVEVARGRAGYGFTLSGQAPCVLSCVMRGSPADFVGLRAGDQILAVNEINVKKASHEDVVKLIGKCSGVLHMVIAEGVGRFESCSSDEEGGLYEGKGWLKPKLDSKALGINRAERVVEEMQSGGIFNMIFENPSLCASNSEPLKLKQRSLSESAATRFDVGHESINNPNPNMLSKEEISKVIHDDSVFSIGLESHDDFALDASILNVAMIVGYLGSIELPSTSSNLESDSLQAIRGCMRRLRAEQKIHSLVTMKIMHDCVQLSTDKAGVVAEYPAEKLAFSAVCPDDRRFFGLVTMQTNDDGSLAQEEEGALRTSCHVFMVDPDLFNHKIHQGIARRFGFECTADPDTNGCLEFPASSLPVLQFISVLYRDMGELIEGMRARAFLDGDADAHQNNSTSSNSDSGIGNFHQEEKSNRVLVVDLGGSSSRHGPGGSAWDGVGGRGAQPWGAPWTGPFCPDPEGSPPFEAAHQTDRFWDLNKHLGPASPVEVPPASLRSSVPPSKRGTVGAGCGFNQRWLPVHVLREWQCGHTSDQDSYTDSTDGWSSINCGTLPPPMSKIPADRYRVEGSFAQPPLNAPKREWSRKAFGMQSIFGPHRNVRKTKEDKKGSKFGRGTGLTQPSQRTSARRSFGRSKRFSITRSLDDLESATVSDGELTGADLKDCVSNNSLSSNASLPSVQSCRRLRERRVASWAVSFERLLQDPVGVRYFSDFLRKEFSEENILFWQACEYFNHVPAHDKKELSYRAREIFSKFLCSKATTPVNIDSQAQLADDVLRAPHPDMFKEQQLQIFNLMKFDSYTRFLKSPLYQECILAEVEGRALPDSQQVPSSPASKHSLGSDHSSVSTPKKLSGKSKSGRSLNEELGDEDSEKKRKGAFFSWSRTRSTGRSQKKREHGDHADDALHANGGLCRRESQGSVSSAGSLDLSEACRTLAPEKDKATKHCCIHLPDGTSCVVAVKAGFSIKDILSGLCERHGINGAAADLFLVGGDKPLVLHQDSSILESRDLRLEKRTLFRLDLVPINRSVGLKAKPTKPVTEVLRPVVARYGLDLSGLLVRLSGEKEPLDLGAPISSLDGQRVVLEEKDPSRGKASADKQKGVPVKQNTAVNSSSRNHSATGEERTLGKSNSIKIKGENGKNARDPRLSKREESIAKIGKKKYQKINLDEAEEFFELISKAQSNRADDQRGLLRKEDLVLPEFLRLPPGSTELTLPTPAAVAKGFSKRSATGNGRESASQPGEQWEPVQESSDSPSTSPGSASSPPGPPGTTPPGQKSPSGPFCTPQSPVSLAQEGTAQIWKRQSQEVEAGGIQTVEDEHVAELTLMGEGDISSPNSTLLPPPSTPQEVPGPSRPGSGTHGSRDLPVNRIIDVDLVTGSAPGRDGGIAGAQAGPGRSQASGGPPTSDLPGLGPVPGEPAKPKTSAHHATFV
binding [1]: binds

B2: Flag-epitope tagged SAPAP3 full-length protein (protein, UniProt O95886 1-979)
chain: MRGYHGDRGSHPRPARFADQQHMDVGPAARAPYLLGSREAFSTEPRFCAPRAGLGHISPEGPLSLSEGPSVGPEGGPAGAGVGGGSSTFPRMYPGQGPFDTCEDCVGHPQGKGAPRLPPTLLDQFEKQLPVQQDGFHTLPYQRGPAGAGPGPAPGTGTAPEPRSESPSRIRHLVHSVQKLFAKSHSLEAPGKRDYNGPKAEGRGGSGGDSYPGPGSGGPHTSHHHHHHHHHHHHQSRHGKRSKSKDRKGDGRHQAKSTGWWSSDDNLDSDSGFLAGGRPPGEPGGPFCLEGPDGSYRDLSFKGRSGGSEGRCLACTGMSMSLDGQSVKRSAWHTMMVSQGRDGYPGAGPGKGLLGPETKAKARTYHYLQVPQDDWGGYPTGGKDGEIPCRRMRSGSYIKAMGDEESGDSDGSPKTSPKAVARRFTTRRSSSVDQARINCCVPPRIHPRSSIPGYSRSLTTGQLSDELNQQLEAVCGSVFGELESQAVDALDLPGCFRMRSHSYLRAIQAGCSQDDDCLPLLATPAAVSGRPGSSFNFRKAPPPIPPGSQAPPRISITAQSSTDSAHESFTAAEGPARRCSSADGLDGPAMGARTLELAPVPPRASPKPPTLIIKTIPGREELRSLARQRKWRPSIGVQVETISDSDTENRSRREFHSIGVQVEEDKRRARFKRSNSVTAGVQADLELEGLAGLATVATEDKALQFGRSFQRHASEPQPGPRAPTYSVFRTVHTQGQWAYREGYPLPYEPPATDGSPGPAPAPTPGPGAGRRDSWIERGSRSLPDSGRASPCPRDGEWFIKMLRAEVEKLEHWCQQMEREAEDYELPEEILEKIRSAVGSTQLLLSQKVQQFFRLCQQSMDPTAFPVPTFQDLAGFWDLLQLSIEDVTLKFLELQQLKANSWKLLEPKEEKKVPPPIPKKPLRGRGVPVKERSLDSVDRQRQEARKRLLAAKRAASFRHSSATESADSIEIYIPEAQTRL
binding [2]: binds

B3: Wildtype human RGS12 PDZ domain GST-fusion protein (domain or fragment, UniProt O14924 18-101)
chain: PRVRSVEVARGRAGYGFTLSGQAPCVLSCVMRGSPADFVGLRAGDQILAVNEINVKKASHEDVVKLIGKCSGVLHMVIAEGVGR
binding [3]: no binding (tested: 9 μM)
binding [4]: no binding (tested: 9 μM)

B4: R59Q-variant human RGS12 PDZ domain GST-fusion protein (domain or fragment, UniProt O14924 18-101, looked up)
chain: PRVRSVEVARGRAGYGFTLSGQAPCVLSCVMRGSPADFVGLQAGDQILAVNEINVKKASHEDVVKLIGKCSGVLHMVIAEGVGR
notes: human RGS12 PDZ domain, aa 18-101 of UniProt O14924, with the bipolar disorder-associated missense variation R59Q; R59Q is a variant found in families with bipolar disorder (Forstner et al.); also called R59Q-variant PDZ domain fusion protein; not shown: GST, N-terminal, kept
binding [3]: no binding (tested: 9 μM)
binding [4]: no binding (tested: 9 μM)
